Experimental data as given in patent publication US20250009779A1 (priority 2021, published 2025).

tested on: pDCs; test: Planned: IFNA expression in pDCs from healthy donors and COVID-19 subjects cultured with TCA inhibitors; settings: UK5099 at 10, 20, and 40 μM, CB839 at 0.5 μM

For `O=C(O)CCCCC(CCSCc1ccccc1)SCc1ccccc1` (stereo not drawn) [CPI-613, 6,8-bis-benzylthio-octanoic acid], which “IFNA expression in cultured pDCs” value is on record?
Its value is “expected to reduce”.

With `O=C(Cc1cccc(OC(F)(F)F)c1)Nc1ccc(CCCCc2nnc(NC(=O)Cc3ccccn3)s2)nn1` [CB839] as the compound, how does the “IFNA expression in cultured pDCs” value read?
Its value is “expected to reduce”.

With `N#C/C(=C\c1cn(-c2ccccc2)c2ccccc12)C(=O)O` [UK5099] as the compound, how does the “IFNA expression in cultured pDCs” value read?
Its value is “expected to reduce”.
